# Laboratory results reported in PMC11995724, “Antibiotic target discovery by integrated phenotypic and activity-based profiling of electrophilic fragments” (Cell chemical biology, 2025).
# Among all 3,200 compounds or so, about 75 (2%) showed an effect of 50% or more. The list shows a part of the results.
# Test system: T1, S. aureus MSSA476
# T1 construct: MSSA476
# Set-up: species or system S. aureus MSSA476 (TSB) or V. cholerae SAD30 (LB); 384-well bacterial growth screen at 25 uM, OD600 relative to DMSO control
# Conditions: relative growth, OD600, TSB; 25 µM; inhibitor
row,SMILES,% of control remaining
1,"CCc1ccc(-c2nn(-c3ccccc3)cc2C=C(C#N)C(N)=O)cc1 [8-O22, 2-cyano-3-[3-(4-ethylphenyl)-1-phenyl-1H-pyrazol-4-yl]prop-2-enamide]",96.9295%
2,"CC(Cl)C(=O)NCc1ccc2cnn(C)c2c1 (stereo not drawn) [7-D21, 2-chloro-N-[(1-methyl-1H-indazol-6-yl)methyl]propanamide]",90.7378%
3,"COc1ccccc1C(NC(=O)C(C)Cl)c1ccco1 (stereo not drawn) [5-H19, 2-chloro-N-[(furan-2-yl)(2-methoxyphenyl)methyl]propanamide]",92.1676%
4,"CN1CCN(C(=O)Cc2cccc(NC(=O)CCl)c2)CC1 [5-C22, 2-chloro-N-{3-[2-(4-methylpiperazin-1-yl)-2-oxoethyl]phenyl}acetamide]",98.3607%
5,"CCc1cnc(N2CCN(C(=O)C(C)Cl)CC2)s1 (stereo not drawn) [7-C20, 2-chloro-1-[4-(5-ethyl-1,3-thiazol-2-yl)piperazin-1-yl]propan-1-one]",99.2151%
6,"C=CC(=O)N1CC2(CCOCC2)C1c1ccco1 (stereo not drawn) [1-D22, 1-[1-(furan-2-yl)-7-oxa-2-azaspiro[3.5]nonan-2-yl]prop-2-en-1-one]",112.527%
7,"N#CC(=Cc1cccc(F)c1)C(=O)NCCc1ccccc1 [8-J22, 2-cyano-3-(3-fluorophenyl)-N-(2-phenylethyl)prop-2-enamide]",66.39%
8,"N#CC(=Cc1cccs1)C(=O)Nc1cccc2ncccc12 [8-D20, 2-cyano-N-(quinolin-5-yl)-3-(thiophen-2-yl)prop-2-enamide]",100.913%
9,"CC(C)N(c1ccccc1)c1ccc(NC(=O)CCl)cc1 [6-I17, 2-chloro-N-{4-[phenyl(propan-2-yl)amino]phenyl}acetamide]",116.78%
10,"COC(=O)c1c(C)[nH]c(C(=O)C(C)Cl)c1C (stereo not drawn) [10-D22, methyl 5-(2-chloropropanoyl)-2,4-dimethyl-1H-pyrrole-3-carboxylate]",111.25%
11,"CC(Cl)C(=O)NCC(=O)Nc1ccc(F)c(F)c1F (stereo not drawn) [4-D20, 2-chloro-N-{[(2,3,4-trifluorophenyl)carbamoyl]methyl}propanamide]",134.921%
12,"CC(Cl)C(=O)N1CCc2ncsc2C1 (stereo not drawn) [7-C06, 2-chloro-1-{4H,5H,6H,7H-[1,3]thiazolo[5,4-c]pyridin-5-yl}propan-1-one]",83.2025%
13,"CC(C)Cc1nnc(NC(=O)CCl)s1 [4-A17, 2-chloro-N-[5-(2-methylpropyl)-1,3,4-thiadiazol-2-yl]acetamide]",128.442%
14,"C=CC(=O)NCC1CNC(=O)c2ccccc21 (stereo not drawn) [2-F17, N-[(1-oxo-1,2,3,4-tetrahydroisoquinolin-4-yl)methyl]prop-2-enamide]",113.142%
15,"COc1ccc(C=C(C#N)C(=O)Nc2ccc([N+](=O)[O-])cc2)cc1 [8-C05, 2-cyano-3-(4-methoxyphenyl)-N-(4-nitrophenyl)prop-2-enamide]",123.817%
16,"C=CC(=O)N[C@@H](CC(N)=O)c1cccc(Cl)c1 [1-I15, N-[(1S)-2-carbamoyl-1-(3-chlorophenyl)ethyl]prop-2-enamide]",118.154%
17,"O=C1C=CC(=O)N1c1ccc(Oc2ccccc2)cc1 [10-F17, 1-(4-phenoxyphenyl)-2,5-dihydro-1H-pyrrole-2,5-dione]",36.875%
18,"O=C(CCl)NCCc1cccs1 [5-L09, 2-chloro-N-[2-(thiophen-2-yl)ethyl]acetamide]",102.732%
19,"N#CC(=Cc1cccc2ccccc12)C(=O)NCc1ccccc1 [8-O19, N-benzyl-2-cyano-3-(naphthalen-1-yl)prop-2-enamide]",104.896%
20,"CCCC(=O)N1CCC(NC(=O)CCl)c2ccccc21 (stereo not drawn) [6-E16, N-(1-butanoyl-1,2,3,4-tetrahydroquinolin-4-yl)-2-chloroacetamide]",92.5366%
21,"Cc1cc(F)c(C(=O)CCl)cc1F [10-L19, 2-chloro-1-(2,5-difluoro-4-methylphenyl)ethan-1-one]",135%
22,"Cc1ccccc1N(CC(=O)N1CCCCC1)C(=O)C(C)Cl (stereo not drawn) [7-G20, 2-chloro-N-(2-methylphenyl)-N-[2-oxo-2-(piperidin-1-yl)ethyl]propanamide]",106.75%
23,"C=CC(=O)NCc1csc2nccn12 [3-J13, N-({imidazo[2,1-b][1,3]thiazol-3-yl}methyl)prop-2-enamide]",118.764%
24,"O=C(CCl)NCC1(c2ccccc2)CC1 [5-E15, 2-chloro-N-[(1-phenylcyclopropyl)methyl]acetamide]",103.097%
25,"C=CC(=O)N1CCC(Cc2ccccc2)CC1 [2-O10, 1-(4-benzylpiperidin-1-yl)prop-2-en-1-one]",80.0696%
26,"C=CC(=O)N1CCC(C(=O)Nc2nc3cc(F)ccc3n2CC)CC1 [3-I13, N-(1-ethyl-5-fluoro-1H-1,3-benzodiazol-2-yl)-1-(prop-2-enoyl)piperidine-4-carboxamide]",110.405%
27,"C=CC(=O)NCc1ccc(-n2cccn2)cc1 [1-M07, N-{[4-(1H-pyrazol-1-yl)phenyl]methyl}prop-2-enamide]",108.308%
28,"O=C(CCl)N1C[C@@H]2C[C@H]1CN2c1ccccc1 [5-E22, 2-chloro-1-[(1S,4S)-5-phenyl-2,5-diazabicyclo[2.2.1]heptan-2-yl]ethan-1-one]",102.732%
29,"C=CC(=O)N1CCC(C(=O)N2CC=CCC2)(c2ccccc2)CC1 [3-J06, 1-[4-phenyl-4-(1,2,3,6-tetrahydropyridine-1-carbonyl)piperidin-1-yl]prop-2-en-1-one]",89.5081%
30,"CC1CN(c2ccc(NC(=O)C(C#N)=Cc3ccco3)cc2)CC(C)O1 (stereo not drawn) [9-J09, 2-cyano-N-[4-(2,6-dimethylmorpholin-4-yl)phenyl]-3-(furan-2-yl)prop-2-enamide]",92.5843%
